Experimental data reported in PubChem BioAssay AID1508624 (National Center for Advancing Translational Sciences (NCATS), 2021).
In all, about 48,000 compounds went through this assay and about 120 (0.25%) were called active. Not shown: some 4% with an inconclusive outcome. Calls come from the whole dose curve; as a rule, active = well fitted activation curve with a large enough effect; inconclusive = small, poorly fitted or top-dose-only effect, or another doubt; inactive = no such curve, though single readings can be large or run the other way. Some of the results follow.

test: Primary qHTS for Identification of Small Molecule Activators of Huntingtin-Antisense Promoter Activity; conditions: HEK293 HTT-AS promoter firefly luciferase reporter (activity 0% = vehicle and -100% = no light), 24 h; series mostly up to 57.5 µM; activity change, positive = activation: at the top concentration; note: nearly all actives have a fitted effect of over 55% in size
In short: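 Quantitative HTS used concentration series of up to 57.5 uM final on HEK293 luciferase reporter cells, 24 h at 37 degrees C. Readout was Dual-Glo firefly luminescence.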

| Structure (SMILES) | activity change, positive = activation |
| --- | --- |
| Cc1ccc(S(=O)(=O)N2CC=C(c3c(C)n(CC(=O)N4CCCC4)c4ccccc34)CC2)cc1C | inactive: -34% |
| COCCOCC(OC)OC | inactive: -0.711% |
| COc1cc(OC)cc(C(=O)NCCc2csc3nc(-c4ccccc4F)nn23)c1 | inactive: -11.8% |
| Cc1sc(-n2cccc2)c(C(C)NC(=O)Nc2cccc(C(F)(F)F)c2)c1C (stereo unspecified) | inactive: -46.2% |
| COc1cccc(CNC(=O)c2cc(-c3ccc(Cl)cc3)n[nH]2)c1 | inactive: 8.06% |
| O=C(CCC(=O)N1CCSc2ccccc21)Nc1ccc(Cl)cc1 | inactive: -19.4% |
| CCC(CC)c1nn2c(=O)cc(COc3ccc(NC(=O)c4cccc(C)c4)cc3)nc2s1 | inactive: -8.94% |
| COc1cccc2c1C(=O)c1c(O)c3c(c(O)c1C2=O)C[C@@](O)(C(C)=O)C[C@H]3O[C@H]1C[C@H](N)[C@H](O)[C@H](C)O1 | inactive: -30.6% |
| CCOc1cccc(C(=O)N(Cc2ccc(C)o2)C2CCS(=O)(=O)C2)c1 (stereo unspecified) | inactive: -13.7% |
| COc1ccc(CNC(=O)c2ccc3c(c2)N(Cc2cc(C)ccc2C)C(=O)CS3)cc1 | inactive: -10.4% |
| COc1ccccc1CNS(=O)(=O)c1cc(Br)cc2c1N(C(=O)C1CC1)CC2 | inactive: -17% |
| COc1ccc(CNc2nc(-c3ccc(Cl)cc3)nn2S(=O)(=O)c2ccc(C)cc2)cc1 | inactive: 1.87% |
| Cc1cc(C)c2sc(NC(=O)c3ccc(S(=O)(=O)N4CCCC4)cc3)nc2c1 | inactive: -28.5% |
| CCOc1ccc(NC(=O)C2(c3cccs3)CCOCC2)cc1 | inactive: -11.4% |
| CCOC(=O)c1cccc(NC(=O)CCc2nc3cccnc3n2-c2ccccc2)c1 | inactive: -18.3% |
| CNC(=O)Oc1ccc2c(c1)[C@]1(C)CCN(C)[C@@H]1N2C | inactive: 1.3% |
| COc1ccccc1C(=O)Nc1nc2nc(C)cc(=O)n2[nH]1 | inactive: -3.91% |
| CCOC(=O)c1c(C)oc2ccc(N(C(=O)c3ccncc3)S(=O)(=O)c3ccc(CC)cc3)cc12 | inactive: -42.3% |
| O=C(CN1C(=O)COc2ccc(S(=O)(=O)NC3CCCC3)cc21)Nc1ccc(Cl)cc1F | inactive: -29.6% |
| Cc1cc2c(F)c(Oc3ncnn4cc(OC[C@@H](C)O)c(C)c34)ccc2[nH]1 | inactive: -30.3% |
| O=C(O)CSCC(=O)NC1CCSC1=O (stereo unspecified) | inactive |

| Structure (SMILES) | activity change, positive = activation |
| --- | --- |
| CCOC(=O)c1c(C)[nH]c(CCC(=O)Nc2cc(Cl)ccc2OC)c1C | inactive: -24.6% |
| COC(=O)c1cc(NC(=O)c2cc3c(-c4ccccc4F)nn(C)c3s2)cc(C(=O)OC)c1 | inactive: -54.6% |
| COc1ccc(OC)c(S(=O)(=O)NCC(c2ccc(N(C)C)cc2)N2CCOCC2)c1 (stereo unspecified) | inactive: -7.35% |
| O=C(NCC(c1ccco1)S(=O)(=O)c1cccs1)c1ccccc1 (stereo unspecified) | inactive: 16% |
| COc1ccc(N2CCN(S(=O)(=O)c3ccc(CC(C)C)cc3)CC2)cc1 | inactive: -26.6% |
| COC(=O)c1cc2oc3ccccc3c2n1Cc1ccc(C)cc1 | inactive: -1.96% |
| CCOC(=O)c1cc2c(=O)n3ccccc3nc2n(Cc2ccco2)c1=NC(=O)c1ccccc1Br | inactive: -17.5% |
| CCOc1ccc(NC(=O)Cn2c(=O)n(CCCC(=O)NCCc3ccc(Cl)cc3)c(=O)c3ccccc32)cc1 | inactive: -16% |
| Cc1ccc(Cn2c(SCC(=O)NCc3ccccc3)nc3ccsc3c2=O)cc1 | inactive: -14.6% |
| Cc1cccc(N2CCN(S(=O)(=O)c3ccc(-c4cnc(C5CC5)o4)cc3)CC2)c1C | inactive: 4.35% |
| Cc1ccccc1-c1noc(-c2ccc(NCC3CCCO3)c([N+](=O)[O-])c2)n1 (stereo unspecified) | inactive: 13.3% |
| CCOC(=O)c1cccc(NC(=O)C(C)n2nc(C)c3c(C)n(-c4ccccc4)nc3c2=O)c1 (stereo unspecified) | inactive: -17.5% |
| Cc1oc(-c2ccccc2F)nc1CS(=O)(=O)CC(=O)N1CCN(c2ccccc2)CC1 | inactive: -25.1% |
| Cc1ccc([N+](=O)[O-])cc1NC(=O)CN(c1ccccc1)S(=O)(=O)N(C)C | inactive: -19.7% |
| COc1ccc(-c2[nH]c(-c3ccc(O)cc3)nc2-c2ccccc2)cc1 | inactive: -27.7% |
| O=c1cc(COc2ccc(Cl)cc2Cl)nc2scc(-c3ccccc3)n12 | inactive: -9.43% |
| COc1ccccc1OCC(=O)N(Cc1ccco1)Cc1ccccc1F | inactive: -21.5% |
| CCOc1ccc(CC(=O)NC2CC(=O)N(c3cccc(F)c3)C2)cc1 (stereo unspecified) | inactive: -7.94% |
| COc1ccccc1-c1nn2c(=O)cc(CN3CCN(C(=O)Nc4ccc(C)cc4Cl)CC3)nc2s1 | inactive: 8.07% |
| CCOc1ccc(-n2c(=O)c3c(C)c(C)sc3n(CC(=O)C(C)(C)C)c2=O)cc1 | inactive: 9.41% |
| CCS(=O)(=O)N1CCc2cc(C(=O)Nc3ccc(Br)cc3F)ccc21 | inactive: -17.4% |

| Structure (SMILES) | activity change, positive = activation |
| --- | --- |
| Cc1ccc(-n2c(=O)c3c(c4cc(C)ccc4n3C)n(CC(=O)Nc3ccc(F)cc3)c2=O)cc1 | inactive: -19.9% |
| CC(=O)c1ccc(N2CCN(C(=O)c3cn(C)c(=O)c4c3c3ccccc3n4C)CC2)cc1 | inactive: 6.54% |
| COc1ccc(CNC(=O)COCc2cc(-c3ccc4c(c3)OCO4)on2)cc1 | inactive: 3.87% |
| COc1cc(C(=O)NCC(c2ccco2)S(=O)(=O)c2cccs2)cc(OC)c1OC (stereo unspecified) | inactive: -3.92% |
| CCc1cccc(C)c1NC(=O)c1ccc2c(c1)CCN2S(=O)(=O)c1ccc(Cl)cc1 | inactive: -24.5% |
| COc1ccc(N(Cc2cccs2)C(=O)c2ccco2)cc1 | inactive: -34.4% |
| CCCCC(=O)Nc1nnc(S(=O)(=O)N(C)Cc2ccc(Cl)cc2)s1 | inactive: -2.52% |
| Cc1cc(C)cc(NC(=O)CCc2c(C)nc3nc(CNC(=O)c4cccc(F)c4)nn3c2C)c1 | inactive: -5.92% |
| COCCCNc1nc2c(c(=O)n(Cc3ccc(F)cc3)c(=O)n2C)n1C | inactive: -5.03% |
| Cc1nc2n(c(=O)c1CCN1CCC(C(=O)c3ccc(F)cc3)CC1)CCS2 | inactive: -19.5% |
| CCOc1cc(C(=O)NCCc2sc(-c3ccc(F)cc3)nc2C)cc(OCC)c1OCC | inactive: -22.3% |
| CNC(=O)CCCN1C(=O)c2cccnc2Sc2ccccc21 | inactive: -9.37% |
| Cc1nc2ccc(S(=O)(=O)N(CC(=O)Nc3ccc(F)cc3F)Cc3ccccc3)cc2s1 | inactive: -19% |
| CCOc1ccc(NC(=O)c2ccc3[nH]c(C)c(C)c3c2)cc1 | inactive: -1.68% |
| O=C(Cn1c(SCc2ccccc2F)nc2ccncc21)Nc1ccccc1C(F)(F)F | inactive: 9.95% |
| O=C(Cn1c(=O)c2cccn2c2cccnc21)NCc1cccc(F)c1 | inactive: -8.93% |
| Cc1ccc(S(=O)(=O)Nc2cccc(-c3cn4cccc(C)c4n3)c2)c(C)c1 | inactive: -8.9% |
| CCc1ccc(NC(=O)CSC2=Nc3ccccc3C3=NC(CCC(=O)NCc4ccccc4)C(=O)N23)cc1 (stereo unspecified) | inactive: -5.81% |
| Cc1ccccc1NC(=O)Cn1cc(C(=O)c2cccs2)c2ccccc21 | inactive: -27.9% |
